According to PubChem BioAssay AID1030 (National Center for Advancing Translational Sciences (NCATS), 2008):
The campaign covered roughly 220,000 compounds. About 16,000 (7.3%) were called active. This list was built around the results that the source calls inconclusive (neither active nor inactive); the mix of calls is not that of the screen. The call rests on the fitted dose curve; in most records, active means well fitted inhibition curve with a large enough effect (not every such curve was filed as active); inconclusive means small, poorly fitted or top-dose-only effect, or another doubt; inactive means no such curve, though single readings can be large or run the other way. A potency beside an inconclusive call is a rough fit, not a confirmed value.

These molecules were tested against Aldehyde dehydrogenase 1A1 (Homo sapiens) (UniProt P00352) (assay: qHTS Assay for Inhibitors of Aldehyde Dehydrogenase 1 (ALDH1A1)). Details: Purified ALDH1A1, NADH fluorescence, propionaldehyde substrate; series mostly up to 75.3 µM.
UniProt P00352, sequence (P00352 whole entry, looked up): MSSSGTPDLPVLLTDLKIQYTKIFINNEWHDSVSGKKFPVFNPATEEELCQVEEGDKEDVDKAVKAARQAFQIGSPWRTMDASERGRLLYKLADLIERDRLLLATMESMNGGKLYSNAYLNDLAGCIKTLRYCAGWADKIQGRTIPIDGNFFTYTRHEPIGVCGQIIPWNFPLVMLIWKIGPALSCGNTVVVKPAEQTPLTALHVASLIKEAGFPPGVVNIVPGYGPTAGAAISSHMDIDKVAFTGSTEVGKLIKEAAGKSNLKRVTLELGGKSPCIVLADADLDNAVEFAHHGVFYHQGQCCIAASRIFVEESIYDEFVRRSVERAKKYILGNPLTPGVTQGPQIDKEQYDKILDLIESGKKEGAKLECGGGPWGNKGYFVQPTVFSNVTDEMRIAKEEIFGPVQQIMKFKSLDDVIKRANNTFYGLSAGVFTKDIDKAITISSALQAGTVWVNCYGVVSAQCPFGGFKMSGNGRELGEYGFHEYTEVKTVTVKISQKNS
Potency means the concentration at half of the fitted maximal effect; tags describe the fitted curve by direction and shape.
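Wherever activity, negative = inhibition is given: plate controls were no enzyme wells and a reference inhibitor.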

Potency, active:
COc1ccc(-c2nc3c(Br)c(N)c(Br)cc3o2)cc1 14.1 µM
CCN(CC)S(=O)(=O)c1cc(NS(=O)(=O)c2cccc(Cl)c2)ccc1C 17.8 µM
COc1ccc(-n2c(SCC(=O)N3CCCCC3C)nnc2-c2cccnc2)cc1 (stereo unspecified) 10 µM
Cc1c(N=NC2=C(O)CCCC2=O)c(=O)n(-c2ccccc2)n1C 12.6 µM
COc1ccc(C(=O)N2CCN(c3ncnc4c(-c5ccccc5)nsc34)CC2)cc1 2.82 µM
Cc1cc(N)ccc1N1CCCC1 25.1 µM
CCCCC(CC(O)COCC(C)C)C(=O)NNC(=S)Nc1ccccc1 (stereo unspecified) 10 µM
CC(=O)c1sc(N/N=C2\CC3CC2C(C)C3(C)C)nc1C (stereo unspecified) 15.8 µM
COCCCN(C(=S)NC(=O)C(C)(C)C)c1c(N)n(Cc2ccccc2)c(=O)[nH]c1=O 28.2 µM
COc1ccc(OCC(=O)N2CCN(C(=O)c3ccco3)CC2)cc1 10 µM
O=C(COC(=O)c1cc[n+]([O-])cc1)Nc1ccccc1Sc1ccccc1 11.2 µM
CN(C)c1ccc(C(=O)OCC(=O)Nc2ccc(N3CCOCC3)cc2)cc1 12.6 µM

Potency, inactive:
Cc1ccc(C)c(NC(=O)c2cc3c([nH]c4ccccc43)c(C)n2)c1
Cc1c(CCOC(=O)c2cc([N+](=O)[O-])cc([N+](=O)[O-])c2)sc[n+]1CCCCS(=O)(=O)[O-]
Cc1ccc(S(=O)(=O)c2cc(C#N)c(=O)[nH]c2N)cc1
CC(C)(C)SCCNC(=O)CN(c1ccccc1)S(=O)(=O)c1ccc(F)cc1
CCc1c(C)nc2c(OC)cccc2c1Cl
COC(=O)c1cccc(NC(=O)CSc2nc(O)c(-c3ccccc3)c(=O)[nH]2)c1
O=C(O)c1cc(Cl)c2c(c1)[C@@H]1C=CC[C@@H]1[C@H](c1ccc(S(=O)(=O)N3CCOCC3)cc1)N2
CC(=O)C1CCC2C3CC=C4CC(O)CC[C@@]4(C)C3CC[C@]12C (stereo partly specified)
Cn1c(Cn2c(=O)sc3ccccc32)nnc1SCC(=O)NCC1CCCO1 (stereo unspecified)
S=C(NC1CCCCC1)NN(c1ccccc1)c1ccccc1
CC(=O)C1=C(O)C(=O)N(c2cccc(C(=O)O)c2)C1c1ccc(F)cc1 (stereo unspecified)
CCOc1ccc(Cl)cc1/C=N/NC(=O)c1ccccc1
O=S(=O)(c1ccc(-c2csc(=Nc3ccccc3)n2CCCN2CCOCC2)cc1)N1CCOCC1
O=C(O)CSc1nc2c(cnn2-c2ccccc2)c(=O)n1-c1ccc(Br)cc1
COc1cc(/C=N/Nc2ccccc2[N+](=O)[O-])ccc1OC(=O)c1ccccc1F
CCN(CC)S(=O)(=O)c1cc(NC(=O)COC(=O)CCC(=O)c2cccs2)ccc1C

Potency, inconclusive:
CCOC(=O)N1CCC(NC(=O)c2cc(C(=O)Nc3ccc(OC)c(OC)c3)ccc2CO)CC1 23.8 µM [inhibitor, single point]
CCN(CC)CCN1C(=O)c2oc3ccccc3c(=O)c2C1c1ccccc1 (stereo unspecified) 2.51 µM [inhibitor, partial curve]
O=C(c1ccc2c(c1)N(Cc1ccccc1)C(=O)CS2)N1CCOCC1 39.8 µM [inhibitor, single point]
COC(=O)C1(C)Nc2ccccc2C(=O)N1c1ccccc1C (stereo unspecified) 28.2 µM [inhibitor, single point]
Cc1cccc(NC(=S)NCc2ccco2)c1C 39.8 µM [inhibitor, single point]
Cc1cc(CSc2ccccc2)ccc1NC(=O)c1ccc(Br)cc1 39.8 µM [inhibitor, single point]
CCOC(=O)c1cc(CNC(=O)c2c(C)oc3c2CCCC3)c(C)o1 28.2 µM [inhibitor, single point]
COC(=O)c1cc(Cl)c(NC(=O)/C=C/c2ccc(OC)c(OC)c2)cc1OC 20 µM [inhibitor, partial curve]
O=C(NN1C(=O)c2ccccc2NC1c1ccc([N+](=O)[O-])o1)c1ccc([N+](=O)[O-])cc1 (stereo unspecified) 2.51 µM [inhibitor, full curve]
C/C(=N\NC(=S)Nc1ccc(C)cc1)c1cc2ccccc2o1 39.8 µM [inhibitor, single point]
Cc1[nH]n(-c2ccccc2)c(=O)c1/C=N/n1c(C)nc2ccccc2c1=O 22.4 µM [inhibitor, single point]
COc1ccc(-c2oc3ncnc(NCCCN4CCOCC4)c3c2-c2ccc(OC)cc2)cc1 31.6 µM [inhibitor, partial curve]
Cc1ccccc1NC(=O)CSc1nc(N)c(C#N)c(-c2cccs2)c1C#N 25.1 µM [inhibitor, partial curve]
COc1cccc2c1nc(C)c1cc(C)oc12 28.2 µM [inhibitor, partial curve]
CCCC(=O)NC(=S)Nc1ccccc1C(F)(F)F 35.5 µM [inhibitor, single point]
Cc1ccc(CSCCC(=O)NCCC2=CCCCC2)cc1 39.8 µM [inhibitor, single point]
Cc1occc1-c1nnc(SCC(=O)Nc2ccccc2N2CCCCC2)n1C 25.1 µM [inhibitor, partial curve]
CCCN1C(=O)SC(CC(=O)Nc2ccc(Br)cc2)C1=O (stereo unspecified) 39.8 µM [inhibitor, single point]
Nc1c(S(=O)(=O)c2cccs2)c2nc3ccccc3nc2n1CC1CCCO1 (stereo unspecified) 20 µM [inhibitor, partial curve]
FC(F)(F)c1cc(-c2ccco2)nc(NCCc2ccccc2)n1 22.4 µM [inhibitor, partial curve]
COc1ccc2[nH]c(C)c(CCN3C(=O)C4CC=CCC4C3=O)c2c1 (stereo unspecified) 14.1 µM [inhibitor, partial curve]
CCn1c(=NC(=O)CN2C(=O)CCC2=O)sc2c(OC)ccc(OC)c21 39.8 µM [inhibitor, partial curve]
CCNCc1cc2cc(C)ccc2[nH]c1=O 11.2 µM [inhibitor, partial curve]
CCOC(=O)c1cnc2c(C)cccc2c1NCCc1ccc(OC)c(OC)c1 28.2 µM [inhibitor, single point]
COC(=O)c1c(NC(=O)C2CC(=O)NN2Cc2ccccc2)sc(C)c1C (stereo unspecified) 39.8 µM [inhibitor, single point]
O=C1C=C(NCCc2ccccc2)C2(CCCCC2)O1 14.1 µM [inhibitor, partial curve]
Cc1ccc(O)c(NC(=O)c2noc3c2CCCCC3)c1 31.6 µM [inhibitor, single point]
CCOC(=O)NNc1cc(C(F)(F)F)ccn1 35.5 µM [inhibitor, single point]
CC(C)OC(=O)C(CC(=O)O)NCc1ccccc1 (stereo unspecified) 39.8 µM [inhibitor, single point]
Cc1ccc(C)c(/C=C(\C(=O)O)c2ccc(S(=O)(=O)N3CCCCC3)s2)c1 39.8 µM [inhibitor, partial curve, poor fit]
CS(=O)(=O)N1CCC(C(=O)N2CCC(Cc3ccccc3)CC2)CC1 14.1 µM [inhibitor, partial curve]
CCCCCC(=O)NC(=S)Nc1cccc(C(C)=O)c1 39.8 µM [inhibitor, single point]
Cc1ccc(C(=O)/C=C/Nc2ccccc2C(N)=O)cc1 22.4 µM [inhibitor, partial curve]
O=C(O)c1ccc(-n2cc(-c3cc4ccccc4oc3=O)[nH]c2=S)cc1 22.4 µM [inhibitor, partial curve]
COc1ccc2[nH]c(=O)c(CN(CCCN(C)C)C(=O)Nc3ccccc3)cc2c1 39.8 µM [inhibitor, single point]
COc1ccc(S(=O)(=O)N2CCOCC2)cc1NC(=O)CN1CCCC1 35.5 µM [inhibitor, single point]
COC(=O)C1=C(C)OC(N)=C(C#N)C1c1cc(OC)c(OCC(N)=O)cc1Cl (stereo unspecified) 22.4 µM [inhibitor, partial curve]
Cc1occc1-c1nnc(SCC(=O)c2c[nH]c3ccccc23)n1C 25.1 µM [inhibitor, single point]
O=C(C[n+]1cc(-c2ccccc2)n2c1CCC2)N1c2ccccc2Sc2ccccc21 44.7 µM [inhibitor, single point]
Cc1ccc(-c2nc3cccnc3s2)cc1NS(C)(=O)=O 28.2 µM [inhibitor, single point]
COc1ccc(N=Cc2nc(-c3ccccc3)oc2OC(=O)c2ccccc2)cc1 39.8 µM [inhibitor, single point]
O=C(/C=C/c1ccco1)NC(=S)Nc1cccc(-c2nc3ccccc3o2)c1 39.8 µM [inhibitor, single point]

activity, negative = inhibition, inactive:
Cn1c(=O)c2[nH]c([C@@H]3CC(=O)C[C@H](c4nc5c([nH]4)c(=O)n(C)c(=O)n5C)N3)nc2n(C)c1=O 3.17% [at 13.5 µM]
